# In ChEMBL document CHEMBL4888484, “Replenishing the malaria drug discovery pipeline: Screening and hit evaluation of the MMV Hit Generation Library 1 (HGL1) against asexual blood stage Plasmodium falciparum ,using a nano luciferase reporter read-out” (2022):
# Among all 150,000 compounds or so, about 540 (0.36%) showed an effect of 50% or more. The list shows a part of the results.
# Tested on: Plasmodium falciparum
# Test: Primary screen in NF54 nanoGlo assay, in single point, at 2uM, 72h; a lower Z score goes with more inhibition
# Format: functional, Erythrocyte
# Conditions: timepoint 72 hour
Compound,% Inhibition,Z score
O=C(c1cnc(O)cn1)N1CCC[C@H]1c1nc(-c2ccccc2)no1,8%,-0.7
CCc1nnc(CN(C)Cc2ccc3c4c(cccc24)C(=O)OC3)o1,-9%,1.1
CC(C)n1ncnc1-c1ccc(C(=O)NCc2ccc(CO)cc2)cc1,-3%,0.51
COc1ccc(NC(C)(C)C(=O)N2C[C@H](CO)[C@@H](CO)C2)cc1,2%,-0.38
Cc1cccc(CN2CCC(c3nc(C)ccc3C(=O)N3CCCCC3)CC2)c1,-20%,2.54
Cc1cc(C(=O)N2CCC[C@H](CCC(=O)O)C2)c(C)n1C(C)C,-11%,1.96
CN1CCN(C(=O)c2csc3c2CCCC3)CC1,-7%,0.95
CC(C)(C)OC(=O)N1CCNC(=O)C1(C)C,2%,-0.31
C[C@H](O)CCN(C)c1ncccc1C(F)(F)F,-12%,1.87
COc1ccc(-c2nnc(NCCc3ccccc3)[nH]c2=O)cc1,-24%,2.87
O=C(O)[C@H]1CCCN1Cc1cc(Cl)c2c(c1)OCCO2,-12%,1.58
CCCc1nnc(NC(=O)CN2CC=C(n3c(=O)[nH]c4ccccc43)CC2)s1,-16%,1.91
CCc1oc(C(=O)N2CCC[C@H](CN3CCOCC3)C2)cc1C,-11%,1.25
CCOCCCNC(=O)c1nc(Cn2nc(-c3ccc(C)cc3)ccc2=O)no1,-8%,1
COc1ccc(COC(=O)c2c(C)noc2C(C)C)cn1,-6%,0.82
Cc1c(NC(=O)CNC(=O)COc2ccccc2)c(=O)n(-c2ccccc2)n1C,3%,-0.36
Cc1cc2nc(C)c(=O)n(Cc3ccc(C(=O)NCCCN4CCCC[C@@H]4C)cc3)c2cc1C,30%,-4.3
Cc1nn(CC(F)(F)F)c(C)c1C(C)C(=O)NC1CCc2cn[nH]c2C1 (centres undefined),-3%,0.67
Cc1ccc(C)c(S(=O)(=O)NCC2CCN(S(=O)(=O)N(C)C)CC2)c1,-10%,1.1
Cc1ccccc1C(=O)NCCCN(C)C,8%,-0.99
C1=CC[C@@H](c2nc(C3CC3)nn2C2CCCCC2)CC1,-6%,1.14

Compound,% Inhibition,Z score
Cc1occc1C(=O)NC[C@H]1Cc2ccccc2O1,-11%,1.71
O=C(c1ccc(Cl)cn1)N1CCC(S(=O)(=O)N2CCCC2)CC1,-11%,1.78
Cc1nc(N)nc(N2CCN(c3ccncc3)CC2)c1C,1%,-0.17
CC[C@H](NC(=O)N1CC(C)(C)OC(C)(C)C1)c1nccs1,-16%,1.63
CCc1nn(-c2ccccc2)c2c1CN(C(=O)Nc1ccc(C)c(F)c1)[C@H](c1cccc(OC)c1)c1cccn1-2,-15%,2.8
Cc1cc(Br)oc1C(=O)N1CCC(C)(C)C1,-4%,0.34
CC[C@H]1OCC[C@@H]1C(=O)N1CCN(C(=O)c2cc(C)[nH]n2)C[C@@H]1C,-3%,0.52
CCc1cc(NC(=O)[C@H]2CC23CCOCC3)ccc1C,-15%,1.9
CN(Cc1ncc(-c2ccccc2)o1)c1ccccc1,-6%,0.5
Cc1ccsc1CN(CCN1CCOCC1)[C@H]1CCCNC1,-5%,0.7
Cc1c(CN2CCC3(CCCC3)C2)cc(C#N)n1C,-17%,1.77
CCc1n[nH]cc1C(=O)N1CCN(Cc2cc(C)cc(C)c2)C(=O)C1,-15%,1.42
Cc1ccoc1C(=O)NC1CCN(C(=O)c2ncccc2Cl)CC1,-8%,0.82
CCc1csc([C@H]2CCCN(c3ncnc(N)c3Cl)C2)n1,-7%,1.01
CCCCOCC(=O)N[C@H]1CCCN(CCN2CCOCC2)C1=O,-12%,1.1
O=C(NC1CCCCC1)c1ccc(Oc2ccnc(-c3cccc(F)c3)n2)cc1,-6%,0.76
COc1cc(OC)c(OC)cc1NC(=O)N1CC(C)(C)C1(C)C,-4%,0.4
Fc1ccc(-c2cn3c(-c4ccccc4)c(-c4ccccc4)nc3[nH]2)cc1,-1%,0.14
O=C(NC1CCCCC1)C1Cc2cc(C(F)(F)F)ccc2N2CCN(c3ccccn3)CC12 (centres undefined),-10%,1.62
CCOCCCC(=O)Nc1nc(-c2cc(C)oc2C)cs1,-8%,1.28
CC1CN(C(=O)CCNC(=O)Nc2cccnc2)CC(C)O1 (centres undefined),-2%,0.21
